{
  "source": "PubChem BioAssay (NCATS)",
  "note": "The inconclusive results got no clear call from the source; some entries with a clear call stand among them for comparison. No potency is given beside an inconclusive call; the fits are too rough. The source made the active and inactive calls. Unless noted, the call rests on the fitted dose curve; in most records, active means well fitted curve in the direction sought with a large enough effect; inconclusive means small, poorly fitted or top-dose-only effect, or another doubt; inactive means no such curve, though single readings can be large; an effect the other way counts as inactive or inconclusive. Potency means the concentration at half of the fitted maximal effect; tags describe the fitted curve by direction and shape.",
  "data": [
    {"target": "Cytochrome P450 2C9 (Homo sapiens) (UniProt P11712)", "sequence (P11712 whole entry, looked up)": "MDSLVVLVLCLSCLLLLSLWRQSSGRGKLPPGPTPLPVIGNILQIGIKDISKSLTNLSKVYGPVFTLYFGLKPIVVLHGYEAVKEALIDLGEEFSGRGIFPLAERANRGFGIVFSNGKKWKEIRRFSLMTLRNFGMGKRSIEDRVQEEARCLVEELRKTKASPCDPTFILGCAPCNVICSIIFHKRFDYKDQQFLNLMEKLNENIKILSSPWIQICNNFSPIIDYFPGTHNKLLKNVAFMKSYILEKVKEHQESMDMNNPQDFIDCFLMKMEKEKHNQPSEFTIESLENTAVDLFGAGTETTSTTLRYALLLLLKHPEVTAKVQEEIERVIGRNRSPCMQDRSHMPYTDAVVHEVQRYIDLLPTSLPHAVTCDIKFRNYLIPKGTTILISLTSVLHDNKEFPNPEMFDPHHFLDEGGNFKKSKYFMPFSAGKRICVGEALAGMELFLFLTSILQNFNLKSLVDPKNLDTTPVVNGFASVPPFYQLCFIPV", "experiment": "Cytochrome P450 family 2 subfamily C member 9 (CYP2C9) small molecule antagonists: luciferase biochemical (cell-free) qHTS assay (AID 1645842; active means well fitted curve in the direction sought with a large enough effect in the repeat runs; inconclusive means weak or mixed curves; inactive means no such curve, though single readings can be large; an effect the other way counts as inactive or inconclusive; further: nearly all actives have a fitted effect of over 55% in size)", "conditions": "P450-Glo CYP2C9 enzyme assay, luciferin luminescence; series mostly up to 57.4 µM; activity change, negative = inhibition: at the top concentration", "outline": "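Luminescence, after 20 min with luciferin detection reagent, reflected CYP2C9 turnover during a 1 h NADPH-driven reaction at 37C. Enzyme-substrate mix contained 0.4% bovine serum albumin and was preincubated with compound 10 min at room temperature.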", "values": [
      {"smiles": "CN1CCN(c2ccc(OC(F)(F)F)c(Nc3ncc4c(n3)-c3c(c(C(N)=O)nn3CCO)CC4)c2)CC1", "Potency": "inconclusive [inhibitor, single point]"},
      {"smiles": "C#Cc1cccc(Nc2nc3cc(C(=O)O)ccc3c3cncnc23)c1", "Potency": "inconclusive [inhibitor, partial curve, poor fit]"},
      {"smiles": "CCN1CCN(Cc2ccc(NC(=O)c3ccc(C)c(Oc4ccnc5[nH]ccc45)c3)cc2C(F)(F)F)CC1", "Potency": "inconclusive [inhibitor, partial curve, poor fit]"},
      {"smiles": "NC(=O)c1ccccc1Nc1ccnc(Nc2cccc(O)c2)n1", "Potency": "inconclusive [inhibitor, single point]"},
      {"smiles": "CCOC(=O)c1cccc(CNc2ccc(N(C)C(=O)Nc3ccccc3)cc2)c1", "Potency": "active: 0.601 µM"},
      {"smiles": "Cc1noc(C)c1-c1cc(O)cc(C(O)c2ccccc2)c1", "note": "(centres undefined)", "Potency": "active: 0.849 µM"},
      {"smiles": "C#CCN(Cc1cc2c(=O)[nH]c(C)nc2cc1Br)c1ccc(C(=O)NCc2cccnc2)cc1", "Potency": "active: 3.01 µM"},
      {"smiles": "Cc1cc(N(C)C)ccc1-c1nc2ccc(-c3nc4ccc(N5CCN(C)CC5)cc4[nH]3)cc2[nH]1", "Potency": "inconclusive [inhibitor, single point]"}
    ]},
    {"system": "not listed separately", "experiment": "Primary qHTS for inhibitors of nuclear receptor binding SET domain protein 2 (NSD2) in an isogenic RCH-ACV NSD2 p.E1099K mutant (9B) (AID 1645876); further: nearly all actives have a fitted effect of over 70% in size; on activity change, negative = viability loss: on the % scale 0 is the no-effect control and ±100 the full control effect", "conditions": "RCH-ACV NSD2 E1099K (9B) viability, CellTiter-Glo, 72 h; series mostly up to 44.9 µM; activity change, negative = viability loss: at the top concentration", "values": [
      {"smiles": "COc1cccc(-c2cc(F)ccc2C2Cc3nc(N)nc(C)c3C(=O)N2)n1", "note": "(centres undefined)", "Potency": "active: 0.0525 µM"},
      {"smiles": "O=C(Nc1ccc(Cl)cc1F)c1ccccc1O", "Potency": "inconclusive [inhibitor, single point]"},
      {"smiles": "C#Cc1cccc(Nc2nc3cc(C(=O)O)ccc3c3cncnc23)c1", "Potency": "active: 4.09 µM"},
      {"smiles": "CC(=O)Nc1ccc(NC(=S)NC(=O)c2ccc(C(C)(C)C)cc2)cc1", "Potency": "active: 1.83 µM"},
      {"smiles": "COCCOCCOc1ccc(C2=N[C@@](C)(C(=O)O)CS2)c(O)c1", "Potency": "inconclusive [inhibitor, single point]"},
      {"smiles": "C=C(C(=O)O)C1CC2=C(C)C(=O)CC2C(C)CC1O", "note": "(centres undefined)", "Potency": "active: 11.5 µM"},
      {"smiles": "COc1cc(C[C@H]2C(=O)OC[C@@H]2Cc2ccc(OC)c(OC)c2)ccc1O", "Potency": "inconclusive [inhibitor, partial curve]"},
      {"smiles": "O=C(Nc1ccc(-c2ccnc(Nc3ccc(N4CCOCC4)cc3)n2)cc1)C1CCCN1", "note": "(centres undefined)", "Potency": "inconclusive [inhibitor, full curve]"},
      {"smiles": "CC1(C)C2CC(OC3OC(COC4OCC(O)(CO)C4O)C(O)C(O)C3O)C1(C)CC2O", "note": "(centres undefined)", "activity change, negative = viability loss": "inactive: -10.6% [at 17.3 µM]"},
      {"smiles": "CC(C)(O)C1CC(=O)C2(C)C(CCC3(C)C(c4ccoc4)OC(=O)C4OC432)C12CCC(=O)OC2", "note": "(centres undefined)", "Potency": "inconclusive [inhibitor, single point]"},
      {"smiles": "CC(=O)OC[C@H]1O[C@@H](n2ncc(=O)[nH]c2=O)[C@H](OC(C)=O)[C@@H]1OC(C)=O", "Potency": "inconclusive [inhibitor, full curve, poor fit]"},
      {"smiles": "CC(=O)C1=C(O)C2c3c[nH]c4cccc(c34)CC2C(C)(C)N(C)C1=O", "note": "(centres undefined)", "Potency": "active: 18.3 µM"},
      {"smiles": "CCCCCCCCC(=O)N[C@H](CN1CCCC1)[C@H](O)c1ccc2c(c1)OCCO2", "Potency": "active: 23 µM"},
      {"smiles": "C=CC(=O)N1CCN(C(=O)CNc2cc(-c3ccccc3Cl)c(Cl)cc2OC)CC1", "Potency": "inconclusive [inhibitor, single point]"},
      {"smiles": "CC(C)(C)Nc1nc(Nc2ccc(C(N)=O)cc2)cc(N)c1C#N", "Potency": "active: 3.65 µM"},
      {"smiles": "O=C(NCc1ccc(Oc2ccccc2)cc1)c1nc(-c2cc(Br)c(O)c(Br)c2)no1", "Potency": "inconclusive [inhibitor, single point]"}
    ]}
  ]
}
